The full ranking holds about 110,000 compounds; the median of “z-score” is about -0.1, and the highest 2% start at about 2. The list shows a part of the results. The source made the active and inactive calls.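 Rule for the calls: active = z-score in the third read window above 3 or below -3; inactive = the rest.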
Target: Metabotropic glutamate receptor 8 (Rattus norvegicus) (UniProt P70579)
Assay: rat mGluR8 modulators via GIRK flux, primary screen, cell-based, thallium flux, HTS (AID 488969)
Conditions: HEK293 rat mGluR8, GIRK (G protein-gated inwardly rectifying potassium channel) thallium flux, FluoZin2; at 10 µM; stronger effect = higher value; submaximal glutamate (EC20) added with thallium

Sequence of UniProt P70579 (P70579 whole entry, looked up): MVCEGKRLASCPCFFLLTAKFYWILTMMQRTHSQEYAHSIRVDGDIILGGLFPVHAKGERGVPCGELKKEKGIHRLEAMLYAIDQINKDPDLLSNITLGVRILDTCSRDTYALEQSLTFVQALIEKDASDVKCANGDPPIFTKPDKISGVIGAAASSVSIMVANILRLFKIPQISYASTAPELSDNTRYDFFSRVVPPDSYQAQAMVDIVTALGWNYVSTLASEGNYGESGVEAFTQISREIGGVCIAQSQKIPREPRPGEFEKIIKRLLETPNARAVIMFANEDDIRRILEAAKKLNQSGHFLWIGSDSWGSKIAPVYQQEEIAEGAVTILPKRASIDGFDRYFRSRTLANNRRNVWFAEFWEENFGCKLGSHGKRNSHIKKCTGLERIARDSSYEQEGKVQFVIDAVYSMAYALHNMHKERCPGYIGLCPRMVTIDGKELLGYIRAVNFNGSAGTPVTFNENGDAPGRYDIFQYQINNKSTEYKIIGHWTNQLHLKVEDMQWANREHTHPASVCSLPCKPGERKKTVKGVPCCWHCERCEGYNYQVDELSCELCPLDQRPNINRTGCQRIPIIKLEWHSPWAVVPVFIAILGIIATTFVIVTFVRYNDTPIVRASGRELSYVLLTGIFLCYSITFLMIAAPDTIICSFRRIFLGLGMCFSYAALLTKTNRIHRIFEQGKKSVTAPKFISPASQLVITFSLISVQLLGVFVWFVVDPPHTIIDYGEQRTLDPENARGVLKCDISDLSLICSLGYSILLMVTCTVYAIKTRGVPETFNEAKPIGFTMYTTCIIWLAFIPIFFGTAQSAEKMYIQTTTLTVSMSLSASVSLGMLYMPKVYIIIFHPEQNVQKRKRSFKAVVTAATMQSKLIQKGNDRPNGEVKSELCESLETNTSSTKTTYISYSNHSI

Row | SMILES | z-score
1 | C/C(Cl)=C\Cn1c(N2CCCCCC2)nc2c1c(=O)n(C)c(=O)n2C | -0.0856
2 | N#Cc1ccccc1NC(=O)c1ccccc1OCC(=O)Nc1ccc2c(c1)oc1ccccc12 | -0.362
3 | O=C(Nc1ccc(N2CCOCC2)cc1)Nc1ccc2nc(-c3ccco3)c(-c3ccco3)nc2c1 | -0.684
4 | Cn1nc(C(F)(F)F)c(C#N)c1N1CCN(c2cccc(C(F)(F)F)c2)CC1 | -0.0641
5 | CCOC(=O)CSc1nnc(NCC(=O)OC(C)C)c(=O)[nH]1 | -0.488
6 | Cc1ccc(C)c(C(=O)NCc2ccncc2)c1 | -0.383
7 | CNc1c2c(nn1C)CCCC2 | 0.166
8 | CC1OC(C)(C)OC1C1CNc2nc(NC(=O)C(C)(C)C)[nH]c(=O)c2N1C(=O)c1cccnc1 (centres undefined) | -0.0365
9 | NC(=O)COc1ncn(-c2ccccc2)n1 | 0.311
10 | c1ccc(NCc2nc(-c3ccccc3)no2)cc1 | -0.0827
11 | O=C(Nc1ccc2c(c1)OCCO2)C(c1ccc(F)cc1)N1CCCCC1 (centres undefined) | -0.253
12 | CCOC(=O)c1cnc(-c2cccc(OC)c2)[nH]c1=O | 0.527
13 | Cc1ccc(/C=C2\SC(=S)N(C(Cc3ccccc3)C(=O)O)C2=O)cc1 (centres undefined) | -0.753
14 | Cn1c(=O)c2c(SCc3cccc(C(F)(F)F)c3)nc(-c3ccco3)nc2n(C)c1=O | -0.194
15 | Cc1ccc(N2C(=O)CSC2c2cccnc2)cc1F (centres undefined) | -0.152
16 | COc1cccc(-c2nc(CS(=O)(=O)CC(=O)NCCC(C)C)c(C)o2)c1 | 0.137
17 | Cc1ccc(Cl)cc1N1CCN(C(=O)c2ccc(CN3CCOCC3)cc2)CC1 | -1.23
18 | COC(=O)c1ccc(C)c(NC(=O)CN(c2ccc3c(c2)OCO3)S(C)(=O)=O)c1 | 0.175
19 | O=C(NC(Nc1nc2ccc([N+](=O)[O-])cc2s1)(C(F)(F)F)C(F)(F)F)c1ccccc1Cl | active: 9.65
20 | CCc1ccc2[nH]c(O)c(N=Nc3nc(-c4ccccc4)cs3)c2c1 | 2.89
21 | COc1cccc(N(C(=O)CNC(=O)c2ccco2)C(C(=O)NC2CCCC2)c2ccncc2)c1 (centres undefined) | 1.01
22 | COc1ccc(CC(=O)Nc2ccc(-c3noc(-c4ccc(Cl)cc4)n3)cc2)cc1 | -0.648
23 | COc1ccccc1CNC(=O)C1=C(C)C(=O)OC12CCC(C)CC2 (centres undefined) | -0.139

Row | SMILES | z-score
24 | CCC(CC)NC(=O)COC(=O)c1ccc(NS(=O)(=O)c2ccc3c(c2)OCCO3)cc1 | -0.43
25 | CCC(=O)c1c[nH]c(C(=O)NCCCn2ccnc2)c1 | 0.09
26 | CC1CCCC(NC(=O)COC(=O)COc2ccc(Cl)cc2)C1C (centres undefined) | -0.271
27 | COc1cc(C(=O)Nc2nc3ccc(C)cc3s2)ccc1OCc1c(C)noc1C | -0.307
28 | CCOc1cccc(C(=O)Nc2cccc(C(=O)NCC(C)C)c2)c1 | -0.422
29 | c1ccc2c(c1)CCN(c1nc3cc4c(cc3s1)OCO4)C2 | 0.247
30 | O=C1C(NS(=O)(=O)c2cccs2)=C(N2CCN(c3cccc(Cl)c3)CC2)C(=O)c2ccccc21 | -0.0984
31 | Cc1ccc(-c2ccnc(=S)[nH]2)cc1 | 0.997
32 | Cc1sc2ncn(CC(=O)OC(C)C(=O)NC(C)(C)C)c(=O)c2c1C (centres undefined) | -0.339
33 | Cc1ccc(N2CC(C(=O)NCCC(C)C)CC2=O)cc1 (centres undefined) | -0.0128
34 | Cc1ccc(S(=O)(=O)NC2CCCC(C(=O)O)C2)cc1 (centres undefined) | 0.0898
35 | O=c1cc2c(nn1Cc1ccc(Cl)cc1)-c1ccccc1CC2 | 0.763
36 | CS(=O)(=O)N1CCN(c2ncccn2)CC1 | 0.25
37 | O=C(O)C1C2C=CC3(CN(c4cccc(C(F)(F)F)c4)C(=O)C13)O2 (centres undefined) | 0.0234
38 | Cc1cc(C)c2c(-n3cccc3)c(C(=O)NNS(=O)(=O)c3ccc(Br)cc3)sc2n1 | 0.741
39 | COc1ccc(CCNc2nc3ccccc3n3nnnc23)cc1OC | -0.352
40 | CC(C)CNC(=O)c1ccccc1NC(=O)c1ccccc1N(C)S(C)(=O)=O | 0.341
41 | Cc1sc(NC(=O)c2ccco2)c(C(c2cccnc2)N2CCC(C)CC2)c1C (centres undefined) | -0.126
42 | CCC1CC2(C)NC(=O)c3c(sc4c3CC(C)(C)OC4)N2C1=O (centres undefined) | -0.0237
43 | CCNC(=O)c1sc(=S)n(CC)c1N | 0.214
44 | Cc1ccc(N2C(=O)CSC2c2cccs2)cc1 (centres undefined) | 0.358
45 | CCOC(=O)c1cc2sc(C)cc2n1CC(=O)N1CCN(C(=O)c2ccco2)CC1 | -0.185
46 | COn1c2c(c3c4no[n+]([O-])c4ccc31)CCCC2 | -0.414

Row | SMILES | z-score
47 | O=[N+]([O-])c1cc2c(c(CSc3nnc(Nc4ccccc4)s3)c1)OCOC2 | 0.199
48 | COCCCNC(=O)CN1CCN(Cc2ccccc2Cl)C1=O | -0.0179
49 | COc1ccc2[nH]c(C)c(C(=O)CN3CCN(C/C=C/c4ccccc4)CC3)c2c1 | 0.0969
50 | C=CCOC(=O)C1=C(C)NC(SCC(=O)N(CC)CC)=C(C#N)C1c1ccco1 (centres undefined) | -0.388
51 | COc1ccc2c(c1)C(=NN)c1cc(OC)ccc1-2 | -0.189
52 | O=C(c1ccccc1)c1c(O)nc(-c2ccccc2)n(-c2ccccc2)c1=O | -0.427
53 | Nc1ncnc2oc(-c3ccco3)c(-c3ccco3)c12 | -0.454
54 | N#Cc1ncc(C(F)(F)F)cc1Sc1ccccc1N | -0.463
55 | O=c1c2cn[nH]c2[nH]c(=S)n1-c1ccccc1 | -0.468
56 | c1ccc2nc(N3CCOCC3)cnc2c1 | 0.591
57 | Cc1[nH]c2ccccc2c1C(=O)COC(=O)c1c(-c2c(F)cccc2Cl)noc1C | -0.0597
58 | COc1ccc(/C=C\C(=O)CC(O)(c2ccccc2)C(F)(F)F)cc1 (centres undefined) | -0.0737
59 | COc1cc2[nH]c(=S)nc(NCC3CCCO3)c2cc1OC (centres undefined) | 0.919
60 | Cc1ccc(C)c(N2CCN(C(=O)CCCN3C(=S)NC(C)(C)CC3C)CC2)c1 (centres undefined) | 0.0362
61 | O=C(Nc1cccnc1)c1ccc(Oc2ccccc2)cc1 | -0.351
62 | CC(=O)Nc1ccc(NC(=O)c2cc(C)nn2-c2ccccc2)cc1 | 0.209
63 | CCN(CC)C(=O)c1cccc2c1C(=O)c1ccccc1-2 | -0.0156
64 | Cc1ccc(CSc2nnc(-c3cccc(S(=O)(=O)N4CCOCC4)c3)n2CC(C)C)cc1 | -0.0691
65 | CS(=O)(=O)N1N=C(c2ccco2)CC1c1ccc(Br)cc1 (centres undefined) | 1.13
66 | CCCCC(=O)Nc1ccc(C(=O)NNC(=O)c2ccco2)cc1 | -1.24
67 | COCCOC(=O)C1=C(C)OC(N)=C(C#N)C1c1ccc2c(c1)OCO2 (centres undefined) | -0.0588
68 | O=C1CC(c2ccc(F)cc2)Cc2nc(NCc3ccco3)ncc21 (centres undefined) | -0.0576
69 | CCCCn1c(O)c(C(CC)=Nc2ccc3c(c2)CCC3)c(=O)[nH]c1=O | -0.122
